# The supplement of paper PMC3334620
# In all, about 33,000 sequences were measured (“E-score (-0.5 to 0.5)”: median about -0.017, highest 2% from about 0.3 on). The list shows a part of the results.
# Target: T1, Sut1 (UniProt P53032)
# T1 sequence: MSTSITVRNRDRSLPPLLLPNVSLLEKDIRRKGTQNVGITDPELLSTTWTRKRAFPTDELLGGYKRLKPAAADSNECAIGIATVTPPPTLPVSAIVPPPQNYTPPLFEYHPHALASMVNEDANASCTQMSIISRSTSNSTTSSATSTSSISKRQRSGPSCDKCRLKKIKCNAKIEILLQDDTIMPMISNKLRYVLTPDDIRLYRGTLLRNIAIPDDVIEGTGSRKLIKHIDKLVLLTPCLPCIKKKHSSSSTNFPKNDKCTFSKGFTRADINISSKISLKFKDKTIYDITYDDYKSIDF
# Test: PBM E-score (8-mer binding enrichment) (E-score (-0.5 to 0.5)); higher = stronger / more preferred TF binding; most listed sequences are background and not binding sites
# Details: protein concentration: 200 nM; construct: GST-full length
# Summary of the method: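 PURExpress in vitro transcription/translation supplied GST-tagged yeast transcription factors, either full-length or DNA-binding domain. Applied at about 100-200 nM to universal all-10-mer Agilent arrays double-stranded by primer extension, the bound protein was detected with fluorescent anti-GST. E-scores, modified Wilcoxon-Mann-Whitney statistics, were given by the Universal PBM Analysis Suite to ungapped eight-base words pooled with their reverse complements after masliner normalisation.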
row,Sequence,PBM E-score
1,CCCTTTTC,-0.0793
2,GATTCTGA,0.0158
3,ATCTTTAC,0.125
4,CAATACTG,-0.0987
5,AACGTAAG,-0.0341
6,CTTGCAGC,-0.0219
7,GCGTACAC,-0.11
8,ATCGGATG,0.157
9,CACCTACA,-0.188
10,GCAAGCTA,-0.0635
11,ATTAGATC,0.0421
12,AACTGACT,0.0907
13,ACCACAAG,-0.0669
14,CGGTCCGC,0.125
15,ATTGCGTG,-0.0118
16,ACGATCCG,0.132
17,GGTCGAGA,-0.209
18,ATGTCGAG,0.0304
19,ACTACAAA,0.302
20,TTAGCTAA,0.00949
21,AAGTAATA,0.106
22,GCACACAC,-0.261
23,GTCCACAA,-0.0143
24,ACCTAATG,-0.117
25,CCGCCTAC,0.051

row,Sequence,PBM E-score
1,AGTTCAAT,-0.104
2,CCAAGAAC,-0.0556
3,TAATCGTA,0.0634
4,CCCAAAAA,-0.0605
5,AGAGGATC,-0.182
6,TCCTGAGA,-0.119
7,CAATCTTA,0.11
8,AACGCGGT,0.0374
9,ACTTTCCC,0.092
10,CTTGTTTA,0.0761
11,GTATGCCA,-0.292
12,CCGTGATC,0.0824
13,ACCTTGCA,0.0126
14,ACCAGCGG,-0.131
15,AGCGAAAA,0.0874
16,ATGGCCAG,0.133
17,TCAACGAA,0.037
18,CCCTTTCC,-0.257
19,ACCAACAA,0.299
20,AAAGAGAA,0.163
21,CCTCAAGA,-0.113
22,AGGTAACT,-0.0505
23,GAAATATC,0.068
24,AGTATGTC,-0.079
25,GCCCAAAC,-0.125

row,Sequence,PBM E-score
1,AGCCGGCC,-0.0862
2,ACCTACTC,-0.0084
3,AAGCTTGA,-0.00902
4,CACGGTCA,-0.0106
5,AAGTCAGA,-0.00235
6,CTTAACCC,0.0641
7,ACTTGCAG,-0.0894
8,CGCCAGTC,-0.189
9,ATAAGCTA,0.144
10,CCCCCAGA,-0.337
11,AGAGAAGA,0.0354
12,ACGACGAA,0.119
13,ACTCTACT,0.0401
14,AAAGTCTT,0.00332
15,TTGAAAAA,0.173
16,CGTAATTC,0.0414
17,AACTTATG,0.0687
18,ATTGCGTC,-0.00332
19,CACCCAAC,0.0668
20,ACTTACAG,0.0155
21,CGCGGTCA,-0.0989
22,ACATCGGG,-0.293
23,GAACCTAC,-0.0695
24,ACTTAGTA,0.15
25,AAGCCTGA,-0.208

row,Sequence,PBM E-score
1,GTACTAGA,0.123
2,AAAATCCC,0.068
3,GCTGACAA,-0.0201
4,CTTGCAAC,0.00418
5,GCCGCAAC,-0.0355
6,ATACAGAG,-0.117
7,ATCAACGC,0.0493
8,GGTGCCCA,-0.252
9,AGTACGTG,-0.0556
10,CTCAGGCA,-0.0425
11,AGAAGAAG,0.109
12,CCAGCTAG,-0.27
13,GATAGCGA,0.0801
14,CCTGTGCC,-0.229
15,CTGGTCCA,-0.198
16,ATACCGCA,-0.229
17,CCGATGCA,0.0988
18,AATACGAT,0.163
19,GTTGGCGA,0.123
20,CCGGATCA,0.212
21,ATACAGGG,0.0749
22,CTCTACTA,-0.141
23,CAGTCTCG,-0.0856
24,ATACGCGA,-0.183
25,ACCGTTGA,-0.167

row,Sequence,PBM E-score
1,CTGACCCC,-0.212
2,ACACTTAT,0.0454
3,CACTTCAG,0.171
4,AATCCTCT,-0.185
5,ACCGTACT,0.108
6,GGTTGGGA,-0.273
7,CATATCGA,-0.081
8,CAGGCGGC,-0.29
9,CTCAACAC,0.147
10,CCACTCCC,-0.254
11,ATCTATAC,0.17
12,AACACAGC,0.159
13,CGGCTTGC,0.105
14,ACCCACCC,-0.125
15,CTCCCGCA,0.0651
16,GACATCAA,0.0833
17,GGTAGTAC,-0.154
18,AACACAAG,0.0493
19,TGAAAACA,0.0895
20,AGAAAGCA,0.194
21,AAGGTATG,0.105
22,ATTCGAGA,-0.0266
23,ACTTGTGA,0.022
24,GGAAGGAA,0.0279
25,AGTCCCTC,-0.194

row,Sequence,PBM E-score
1,GCCCGAAC,-0.00475
2,ACTCCGTC,0.48
3,AAGTGGGA,0.126
4,CTCTCGGC,-0.0324
5,CCTCAACC,-0.19
6,AGCTAGCC,-0.173
7,GAGAAAGA,0.22
8,TCTAGGAA,-0.0256
9,CGAAAACC,0.0693
10,CGTTAACC,0.00056
11,AATATTAT,0.319
12,GACTGAAA,0.145
13,AGCCATCA,0.0518
14,AGGCCCTA,-0.0648
15,AGATACTA,-0.0165
16,ACATTCGG,0.164
17,GAACAGCC,-0.171
18,CAGGTAGG,-0.0364
19,AGAGTCAC,-0.177
20,ACTAGTAA,0.186
21,CACTTGGA,0.0147
22,CTCCCTCC,-0.2
23,CAACTGCG,-0.0654
24,AACCATAC,0.0437
25,TGACTACA,0.1

row,Sequence,PBM E-score
1,ATCCAGGA,-0.128
2,CACTACGC,-0.248
3,GAGCAAAA,0.0808
4,TGGATCCA,0.0616
5,GGCGAAAC,-0.115
6,GTAGATGA,0.0905
7,AGTGTTAT,0.181
8,AATCTTAG,0.00355
9,GATCCCAC,-0.0249
10,ATTTGCGC,0.0688
11,CTGCCATA,-0.129
12,AGCGCTAC,-0.0877
13,AAAGAGGG,-0.146
14,GCGTTTGA,0.0588
15,AATATTGT,0.292
16,AGCATATC,-0.0952
17,TAACCATA,-0.00377
18,AATCTAAC,0.0735
19,ATGATCCA,0.0289
20,ACTACGTA,0.0693
21,ACACCATA,0.00796
22,CCCATCTA,-0.0336
